# According to PMC7240701 (Journal of medicinal chemistry, 2019):
# Key:
# Cathepsin L [1] = biological target: T1, Cathepsin L (Homo sapiens, UniProt P07711); assay: Cathepsin L kinetic assay
# [2] = system: T. cruzi CA-I/72 intracellular amastigote; assay: Cell-based intracellular T. cruzi amastigote assay
# [3] = system: epimastigotes (insect) stage of T. cruzi; conditions: previous studies; cited from earlier work
# C2C12 mouse myoblasts = assay: Host cell cytotoxicity in T. cruzi assay; conditions: murine host cells
# Cathepsin L [4] = biological target: T1, Cathepsin L; assay: Preincubation-dilution reversibility experiment; format: biochemical
smiles,measurement,setting,value
"C#CCCCCOC1=CC(=O)N(C(=O)/C=C/[C@H](C)NC(=O)[C@H](CC(C)C)NC(=O)[C@H](CC(C)C)OC(=O)[C@H]([C@@H](C)CC)N(C)C)C1C (stereo in doubt) [compound 16, (S)-1-(((S)-1-(((S,E)-5-((S)-3-(Hex-5-yn-1-yloxy)-2-methyl-5-oxo-2,5-dihydro-1H-pyrrol-1-yl)-5-oxopent-3-en-2-yl)amino)-4-methyl-1-oxopentan-2-yl)amino)-4-methyl-1-oxopentan-2-yl dimethyl-L-isoleucinate]",Ki,"Cathepsin L [1]; initial reversible binding, regressed from progress curves, 10 μM Z-FR-AMC",sub-nanomolar
"CC[C@H](C)[C@@H](C(=O)O[C@@H](CC(C)C)C(=O)N[C@@H](CC(C)C)C(=O)N[C@@H](/C=C/C(=O)N1C(=O)C=C(OC)[C@H]1Cc1ccccc1)Cc1ccccc1)N(C)C [compound 15, (S)-1-(((S)-1-(((R,E)-5-((R)-2-Benzyl-3-methoxy-5-oxo-2,5-dihydro-1H-pyrrol-1-yl)-5-oxo-1-phenylpent-3-en-2-yl)amino)-4-methyl-1-oxopentan-2-yl)amino)-4-methyl-1-oxopentan-2-yl dimethyl-L-isoleucinate]",kinact/KI,Cathepsin L [1],23900 M⁻¹ s⁻¹
"O=C(Cn1ccnc1[N+](=O)[O-])NCc1ccccc1 [benznidazole, reference compound]",LD50,"[2]; positive control, same cell-based assay",1.5 µM
"CC[C@H](C)[C@@H](C(=O)O[C@@H](CC(C)C)C(=O)N[C@@H](CC(C)C)C(=O)N[C@@H](C)/C=C/C(=O)N1C(=O)C=C(OC)[C@@H]1C)N(C)C [compound 1, Gallinamide A]",activity against T. cruzi epimastigotes,[3],very low or no activity
same,highest concentration without toxicity to host cells,C2C12 mouse myoblasts,> 10 µM
same,elimination of parasites from infected murine cells,"[2]; 20 nM, nuclear stain images",eliminates the majority of parasites
"CC[C@H](C)[C@@H](C(=O)O[C@@H](CC(C)C)C(=O)N[C@@H](CC(C)C)C(=O)N[C@@H](C)CCC(=O)N1C(=O)C=C(OC)[C@@H]1C)N(C)C [compound 17, (S)-1-(((S)-1-(((S)-5-((S)-3-Methoxy-2-methyl-5-oxo-2,5-dihydro-1H-pyrrol-1-yl)-5-oxopentan-2-yl)amino)-4-methyl-1-oxopentan-2-yl)amino)-4-methyl-1-oxopentan-2-yl dimethyl-L-isoleucinate]",catalytic activity upon dilution,"Cathepsin L [4]; of initial activity, 1 hour of kinetic readings",approximately 75%
same,mode of inhibition,Cathepsin L [4]; preincubation-dilution,reversible
"CC[C@H](C)[C@@H](C(=O)O[C@@H](CC(C)C)C(=O)N[C@@H](CC(C)C)C(=O)N[C@@H](/C=C/C(=O)N1C(=O)C=C(OC)[C@@H]1Cc1ccccc1)Cc1ccccc1)N(C)C [compound 14, (S)-1-(((S)-1-(((R,E)-5-((S)-2-Benzyl-3-methoxy-5-oxo-2,5-dihydro-1H-pyrrol-1-yl)-5-oxo-1-phenylpent-3-en-2-yl)amino)-4-methyl-1-oxopentan-2-yl)amino)-4-methyl-1-oxopentan-2-yl dimethyl-L-isoleucinate]",kinact/KI,Cathepsin L [1],6900 M⁻¹ s⁻¹
same,reduction in activity (cathepsin L),"Cathepsin L [1]; d-Phe at fourth residue (R'), comparing 8 with 14",> 100 fold
